About 1,700 (3.3%) of roughly 52,000 compounds were called active. Rule as the data show it: active = survival mostly below about 52% (no sharp cut-off); inactive = mostly above about 56%. The list shows a part of the results.
tested on: Wild type; experiment: growth inhibition of S. aureus wild type versus tarO mutant, primary screen, teichoic acid synthesis inhibitors, RN4220, OD600 (AID 463173); details: S. aureus RN4220 wild type/DeltatarO growth, OD600, 18 h, active compounds read low, screened at 18.75 µg/mL (by protocol)

| Structure (SMILES) | survival |
| --- | --- |
| Cc1ccc(S(=O)(=O)NNC(=S)NCC2CCCO2)cc1 (centres undefined) | inactive: 100% |
| COc1ccc2c(c1)c(=O)c(S(=O)(=O)c1ccc(F)cc1)cn2Cc1ccccc1Cl | inactive: 81% |
| Cc1ccc(-c2cn3cccnc3n2)cc1NC(=O)Nc1ccc(F)cc1 | inactive: 152% |
| O=C(c1ccc2c(c1)OCO2)c1cn(Cc2ccc(Cl)cc2)c2ccc(F)cc2c1=O | inactive: 70% |
| COc1cccc2c(C)cc3nnc(SCC(=O)Nc4ccc(C)cc4)n3c12 | inactive: 52% |
| COCCNC(=O)CN1C(=O)c2cccnc2Sc2ccccc21 | inactive: 119% |
| O=C(Cn1ncc2c1-c1ccccc1OC2)N1CCN(c2ccccc2)CC1 | inactive: 68% |
| Nn1c(Cc2ccccc2)nc2cc(Cl)ccc2c1=O | inactive: 117% |
| CC1CCC(NC(=O)c2ccc(CS(=O)(=O)c3ccc(Cl)cc3)o2)CC1 (centres undefined) | inactive: 93% |
| CCCCOc1ccc(C(=O)N2CCCCC2CCN2CCOCC2)cc1 (centres undefined) | inactive: 84% |
| CCN(CC)S(=O)(=O)c1ccc(C(=O)NCCSc2c(-c3ccc(F)cc3)[nH]c3ccccc23)cc1 | inactive: 77% |
| CCC(=O)Nc1ccc2nc(SCCOc3ccc(C)cc3OC)sc2c1 | inactive: 84% |
| Cc1cc(Cl)ccc1OCC(=O)N(Cc1sccc1C)C1CCS(=O)(=O)C1 (centres undefined) | inactive: 85% |
| CC(=O)c1ccc(NC(=O)CSc2nc(-c3ccc(C)cc3)nc3c2c(=O)n(C)c(=O)n3C)cc1 | inactive: 75% |
| CCn1c(=O)cc(OCC(=O)N2CCN(c3ccc(C)cc3)C(C)C2)c2ccccc21 (centres undefined) | inactive: 80% |
| CC(C)OCCCNC(=O)CN1C(=O)c2cccnc2Sc2ccccc21 | inactive: 64% |
| CCCOc1cccc(C(=O)N(Cc2sccc2C)C2CCS(=O)(=O)C2)c1 (centres undefined) | inactive: 114% |
| COc1ccc(CNC(=O)c2cnc(N(C)C)nc2)cc1 | inactive: 102% |
| CCOc1nc(Nc2ccccc2)nc(OCC)n1 | inactive: 111% |
| Cn1c(=O)n(Cc2ccccc2)c(=O)c2c1nc1n2CCN1c1ccccc1 | inactive: 91% |

| Structure (SMILES) | survival |
| --- | --- |
| O=C(Cn1cc(SCc2c(F)cccc2Cl)c2ccccc21)N1CCCCC1 | inactive: 86% |
| Cc1cccn2cc(-c3cccc(NC(=O)C(C)C)c3)nc12 | inactive: 69% |
| CCN(CC)CCNC(=O)CN1N=C(c2ccc(OC)cc2)CCC1=O | inactive: 86% |
| CCN(CC)CCNC(=O)C(=O)NCC(c1ccc2c(c1)OCO2)N1CCOCC1 (centres undefined) | inactive: 82% |
| CCCN1C(=O)c2[nH]nc(-c3ccccc3)c2C1c1cccc(O)c1 (centres undefined) | inactive: 76% |
| CCOc1ccc(-c2nnc(SCC(=O)NCc3ccccc3Cl)o2)cc1 | inactive: 85% |
| O=C(CSc1cn(CC(=O)N2CCCCC2)c2ccccc12)NCc1ccccc1 | inactive: 97% |
| CCOc1ccc(CNC(=O)C2CCN(c3nnc(-n4c(C)ccc4C)s3)CC2)cc1 | inactive: 88% |
| Cc1ccc(NC(=O)c2oc3ccccc3c2NC(=O)Cc2ccccc2)cc1 | inactive: 77% |
| O=C(OCCCN1CCOCC1)c1ccc(O)cc1O | inactive: 98% |
| COc1ccccc1NC(=O)CSC1=Nc2ccccc2C2=NC(Cc3ccccc3)C(=O)N12 (centres undefined) | inactive: 146% |
| CCOc1ccc(S(=O)(=O)N2CCN(c3cccc(C(F)(F)F)c3)CC2)cc1OCC | inactive: 72% |
| CCOC(=O)N1CCc2c(sc3c2c(=O)n(Cc2ccccc2)c(=O)n3Cc2cccc(C)c2)C1 | inactive: 92% |
| Cc1cc(C)c(S(=O)(=O)NCC(c2ccco2)N2CCOCC2)c(C)c1 (centres undefined) | inactive: 82% |
| CCc1nc2c(cnn2-c2ccc(C)cc2)c(=O)n1Cc1ccccc1 | inactive: 22% |
| COc1ccc(Cl)cc1C(=O)NCc1ccco1 | inactive: 106% |
| CCc1ccc(NC(=O)Cn2c(=O)n(CCCCC(=O)NCc3ccccc3Cl)c(=O)c3ccccc32)cc1 | inactive: 90% |
| Cc1ccc(-c2onc(C)c2C)cc1S(=O)(=O)NCc1ccc(N(C)C)cc1 | active: -4% |
| COc1cccc(Cn2c(=O)n(-c3cccc(Cl)c3)c(=O)c3c4c(sc32)CN(C(C)=O)CC4)c1 | inactive: 86% |
| C=CCC(CC=C)(CNC(=O)C(=O)Nc1ccc(C)cc1)c1ccccc1 | inactive: 98% |

| Structure (SMILES) | survival |
| --- | --- |
| CCOc1cc(OCC)cc(C(=O)Nc2cccc(-c3nc4ccccc4[nH]3)c2)c1 | inactive: 58% |
| CCOc1ccc(NC(=O)CN2CCN(S(=O)(=O)c3ccc(OC)cc3)CC2)cc1 | inactive: 81% |
| O=C(NCc1ccccc1)C(=O)NCC(c1ccco1)S(=O)(=O)c1ccc(Cl)cc1 (centres undefined) | inactive: 69% |
| CN(C)c1nc(C2CC2)nc2c1nnn2Cc1ccccc1Cl | inactive: 124% |
| COc1ccccc1-c1nnc(C2CCN(C(=O)c3cccc(C)c3)CC2)o1 | inactive: 80% |
| COc1ccc(NC(=O)c2cc(C)nc3c2c(C)nn3-c2ccc(C)cc2)cc1OC | inactive: 75% |
| CCOC(=O)C1CC1c1ccccc1 (centres undefined) | inactive: 118% |
| CC(C)(O)C1Cc2cc3ccc(=O)oc3cc2O1 (centres undefined) | inactive: 97% |
| CCn1c(=O)cc(OCC(=O)NCc2ccccc2OC)c2ccccc21 | inactive: 74% |
| CCCCN(C)CCCNC(=O)C1CCN(S(=O)(=O)CC)CC1 | inactive: 120% |
| Cc1c2cnn(CC(=O)N3CCN(c4ccccc4)CC3)c(=O)c2c(C)n1Cc1ccccc1Cl | inactive: 94% |
| CC(=O)C1=C(c2ccccc2)N(C(C)=O)n2c(nnc2C2CCCCC2)S1 | inactive: 159% |
| CCCCN(C)CCCNC(=O)CN1N=C(c2ccc(OC)cc2)CCC1=O | inactive: 80% |
| CC(=O)c1ccc(NC(=O)CCc2c(C)nc3c(c2C)c(=O)n(C)c(=O)n3C)cc1 | inactive: 72% |
| CSc1ncc(Cl)c(C(=O)Nc2ccc(S(=O)(=O)Nc3nccc(C)n3)cc2)n1 | inactive: 84% |
| COc1cc2nc(NC(=O)c3ccccc3)[nH]c(=O)c2cc1OC | inactive: 107% |
| COc1ccc(CCNC(=O)c2cc3n(n2)CCCN(Cc2ccc(C)cc2)C3=O)cc1OC | inactive: 82% |
| Cc1ccc(CCNC(=O)c2ccc3[nH]c(C)c(C)c3c2)cc1 | inactive: 135% |
| Cc1cc(C)cc(-n2cnc3cc(C(=O)NC4CCCCCC4)ccc32)c1 | inactive: 87% |

Reference: PubChem BioAssay AID463173 (ICCB-Longwood Screening Facility, Harvard Medical School, 2010)
